Test [1] has as its target T1, human CLDN6 on Ba/F3 cells (hCLDN6/BaF) (human) (UniProt P56747).
T1 sequence: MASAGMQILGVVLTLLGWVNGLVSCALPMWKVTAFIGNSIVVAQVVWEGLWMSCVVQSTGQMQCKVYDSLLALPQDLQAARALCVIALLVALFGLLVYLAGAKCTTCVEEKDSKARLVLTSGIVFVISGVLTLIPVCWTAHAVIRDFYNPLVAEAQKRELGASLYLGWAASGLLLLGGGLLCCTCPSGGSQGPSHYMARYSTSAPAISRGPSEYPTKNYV
The test can be described thus: flow cytometry on hCLDN6/BaF3 cells, antibody at 15 micro g/ml, detection with Alexa Fluor 488 anti-human IgG.

Protein sequences, listed by entry. Tags and fused reporters are not part of them. Residues count along the entry.
UniProt A9YYE7, residues 24-186: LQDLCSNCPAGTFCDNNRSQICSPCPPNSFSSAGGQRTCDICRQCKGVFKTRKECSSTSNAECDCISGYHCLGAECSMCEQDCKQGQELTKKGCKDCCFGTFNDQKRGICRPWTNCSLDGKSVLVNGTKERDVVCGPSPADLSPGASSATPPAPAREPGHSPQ

Test [2] addresses T1, human CLDN6 on Ba/F3 cells (hCLDN6/BaF) (human). Nature of the test: flow cytometry on Ba/F3 transfectants (hCLDN6/BaF, hCLDN3/BaF, hCLDN4/BaF, hCLDN9/BaF), antibody at 15 micro g/ml, Alexa Fluor 488 anti-human IgG. (In general: Flow cytometry measures light scatter and fluorescence of single cells or particles in a stream.)
For another test, the target named is T2, hCLDN3/BaF3.
T2 sequence (membrane protein): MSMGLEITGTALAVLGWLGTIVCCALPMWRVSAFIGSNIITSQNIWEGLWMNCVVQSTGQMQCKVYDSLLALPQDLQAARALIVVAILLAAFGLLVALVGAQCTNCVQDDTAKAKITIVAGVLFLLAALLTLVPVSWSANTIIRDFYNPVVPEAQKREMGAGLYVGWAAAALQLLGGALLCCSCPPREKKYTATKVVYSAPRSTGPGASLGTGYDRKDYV
The test can be described thus: flow cytometry on hCLDN3/BaF3 cells, detection with Alexa Fluor 488 anti-human IgG.

The target of the next test is T3, hCLDN4/BaF3.
T3 sequence (membrane protein): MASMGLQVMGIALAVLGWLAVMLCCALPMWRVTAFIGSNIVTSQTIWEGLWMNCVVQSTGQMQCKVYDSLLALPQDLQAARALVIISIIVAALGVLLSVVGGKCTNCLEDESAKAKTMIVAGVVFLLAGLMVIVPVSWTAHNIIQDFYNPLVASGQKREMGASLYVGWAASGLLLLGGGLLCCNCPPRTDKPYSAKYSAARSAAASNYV
Nature of the test: flow cytometry on hCLDN4/BaF3 cells, detection with Alexa Fluor 488 anti-human IgG.

For test [3], the target named is T4, human CLDN6 VLP (virus-like particle) (human) (UniProt P56747).
T4 sequence: T1 sequence
The test can be described thus: SPR Biacore T200, CLDN6 VLP captured by anti-human CD81.

For test [4], the target named is recombinant cyno CD137 (cynomolgus monkey) (UniProt A9YYE7). The test can be described thus: SPR Biacore 8K, antibody captured by anti-human Fc.

Positions count from the first letter of the chain named. These are yes or no findings as the source states them, for the method shown. Some binding calls cover weakened binding; strength is not graded here.

B1: CS2961 (bispecific antibody, V domains shown)
VH 1: QVQLVESGGGVVQPGGSLRLSCAASGFTFSSYTMSWVREAPGQGLEWMGTISSGGGRTYYPDSVKGRFTISRDNSKNTLYLQMNSLRDEDTAVYYCARGDYRYDGFAYWGEGTLVTVSS
VL 1: DIQMTQSPSSLSASVGDRVTITCRASYNIDSYLAWYQKKPGKAPELLIYYSTLLVDGVPDRFSGSRSGTDFTLTISSLQPEDFATYYCQHYYSIPYTFGQGTKVEIE
VH 2: QVQLVESGGGVVQPGGSLRLSCAASGFTFSNAWMHWVRKAPGKGLEWVAQIKDKSQNYATYVAESVKGRFTISRADSKNSIYLQMNSLKTEDTAVYYCRYVHYAAGYGVDIWGQGTTVTVSS
VL 2: DIVMTQSPLSLPVTPGEPASISCRSSQPLVHSNRNTYLHWYQEKPGQAPRLLIYKVSNRFSGVPDRFSGSGSGTDFTLKISRVEAEDVGVYYCGQGTQVPYTFGQGTKLEIK
Regarding B1, the binding entry in test [1] and in test [2] was “binds” throughout.

B2: KLH/TR01 (bispecific antibody, V domains shown)
VH 1: QVQLQQSGPQLVRPGASVKISCKASGYSFTSYWMHWVNQRPGQGLEWIGMIDPSYSETRLNQKFKDKATLTVDKSSSTAYMQLSSPTSEDSAVYYCALYGNYFDYWGQGTTLTVSS
VL 1: DIQMTQSSSSFSVSLGDRVTITCKASEDIYNRLAWYQQKPGNAPRLLISGATSLETGVPSRFSGSGSGKDYTLSITSLQTEDVATYYCQQYWSTPYTFGGGTKLEVK
VH 2: B1 VH 2 with K39Q
VL 2: B1 VL 2 with E43Q
Regarding B2, the binding entry with hCLDN3/BaF3 and with hCLDN4/BaF3 was “no binding (tested: 15 micro g/ml)” each time.

B3: PPU4135 (bispecific antibody, human IgG1, kappa, L234A L235A, N297A)
heavy 1: QVQLVESGGGVVQPGGSLRLSCAASGFTFSSYTMSWVRQAPGQGLEWMGTISSGGGRTYYPDSVKGRFTISRDNSKNTLYLQMNSLRDEDTAVYYCARGDYRYDGFAYWGEGTLVTVSSASTKGPSVFPLAPSSKSTSGGTAALGCLVEDYFPEPVTVSWNSGALTSGVHTFPAVLESSGLYSLSSVVTVPSSSLGTQTYICNVNHKPSNTKVDKRVEPKSCDKTHTCPPCPAPEAAGGPSVFLFPPKPKDTLMISRTPEVTCVVVDVSHEDPEVKFNWYVDGVEVHNAKTKPREEQYASTYRVVSVLTVLHQDWLNGKEYKCKVSNKALPAPIEKTISKAKGQPREPQVYTLPPSREEMTKNQVSLTCLVKGFYPSDIAVEWESNGQPENNYKTTPPVLDSDGSFFLYSKLTVDKSRWQQGNVFSCSVMHEALHNHYTQESLSLSP
light 1: DIQMTQSPSSLSASVGDRVTITCRASYNIDSYLAWYQQKPGKAPELLIYYSTLLVDGVPDRFSGSRSGTDFTLTISSLQPEDFATYYCQHYYSIPYTFGQGTKVEIERTVAAPSVFIFPPSDEQLKSGTAKVVCLLNNFYPREAKVQWKVDNALQSGNSKESVTEQDSKDSTYSLSSTLTLSKADYEKHKVYACEVTHQGLSSPVTKSFNRGEC
heavy 2: QVQLVESGGGLVQPGRSLRLSCAASGFKFSNVWFHWVRQAPGKGLEWVAQIKDYYNAYAAYYAPSVKGRFTISRDDSKNSIYLQMNSLKTEDTAVYYCHYVHYASASTLLPAEGVDAWGQGTTVTVSSASTKGPSVFPLAPSSKSTSGGTAALGCLVKDYFPEPVTVSWNSGALTSGVHTFPAVLKSSGLYSLSSVVTVPSSSLGTQTYICNVNHKPSNTKVDKRVEPKSCDKTHTCPPCPAPEAAGGPSVFLFPPKPKDTLMISRTPEVTCVVVDVSHEDPEVKFNWYVDGVEVHNAKTKPREEQYASTYRVVSVLTVLHQDWLNGKEYKCKVSNKALPAPIEKTISKAKGQPREPQVYTLPPSRKEMTKNQVSLTCLVKGFYPSDIAVEWESNGQPENNYKTTPPVLDSDGSFFLYSKLTVDKSRWQQGNVFSCSVMHEALHNHYTQKSLSLSP
light 2: DIVMTQSPLSLPVTPGEPASISCQPSQEVVHMNRNTYLHWYQQKPGQAPRLLIYKVSNRFPGVPDRFSGSGSGTDFTLKISRVEAEDVGVYYCAQGTSHPFTFGQGTKLEIKRTVAAPSVFIFPPSDEQLKSGTAEVVCLLNNFYPREAKVQWKVDNALQSGNSEESVTEQDSKDSTYSLSSTLTLSKADYEKHKVYACEVTHQGLSSPVTKSFNRGEC
Consider B3, for which the binding result in test [3] and in test [4] was “binds” throughout.

The values are drawn from patent US20240425589A1, “CYTOTOXICITY-INDUCING THERAPEUTIC AGENT FOR USE IN TREATMENT OF CANCER” (CHUGAI SEIYAKU KABUSHIKI KAISHA, priority 2021, published 2024).
